Results as given in PubChem BioAssay AID1956 (SRMLSC, 2009).
This is one part of the list. Further columns of the screen follow, without active or inactive calls.

Experiment: compounds boosting herpes simplex virus growth – fold increase, host cell viability (AID 1956); also: tested in PC3 cells
Settings: HSV replication augmentation in cells; fold increase: measured here: primary screen fold increase 10 uM, at 10 µM, stronger effect = higher value; viability: measured here: host cell viability series, at 25 µM, stronger effect = lower value

**Q.** Which fold increase does the source give for `Cc1ccc(-c2ccccc2[C@@H]2C[C@H]3CN(C)C(=O)[C@]34CCCN24)o1` here?
**A.** 1.58

**Q.** And the viability?
**A.** 97.4%

**Q.** With `CCSc1nnc(Cn2c(=O)sc3ccccc32)n1-c1ccc(OC)cc1` as the compound, how does the fold increase read?
**A.** 1.42

**Q.** What about the viability of the same compound?
**A.** 105%

**Q.** With `CCN1/C(=C/c2ccc3cc(C)ccc3[n+]2CC)Sc2cc(C)c(C)cc21` as the compound, how does the fold increase read?
**A.** 9.94

**Q.** What does the source list for `CCCCn1c(=O)[nH]c2nc3cc(N)ccc3nc2c1=O`?
**A.** fold increase: 4.21; viability: 88.5%

**Q.** Which fold increase does the source give for `Cc1ccc(NC(=O)N2CCC(C(=O)NCCC3=CCCCC3)CC2)cc1` here?
**A.** 1.48

**Q.** What about the viability of the same compound?
**A.** 97.9%

**Q.** With `CN1CCc2c(sc3c2C(=O)NC(c2ccccc2)N3)C1` (stereo not given) as the compound, how does the fold increase read?
**A.** 1.47

**Q.** And the viability?
**A.** 102%

**Q.** With `CCOC(=O)/C=C1\SCC(=O)N1CC(=O)Nc1ccc(OC)c(OC)c1` as the compound, how does the fold increase read?
**A.** 1.43

**Q.** With `Cc1cc(/C=C2/SC(=S)N(c3cccc(C(F)(F)F)c3)C2=O)c(C)n1-c1cccnc1` as the compound, how does the fold increase read?
**A.** 1.2

**Q.** For `Nc1c(C(=O)Nc2nc3ccccc3s2)sc2nc(-c3cccs3)ccc12`, which fold increase is on record?
**A.** 2.3

**Q.** And the viability?
**A.** 1.56%

**Q.** For `CN(C)c1ccc(/C=C2\CCC/C(=C\c3ccccc3)C2=O)cc1`, which fold increase is on record?
**A.** 3.02

**Q.** What about the viability of the same compound?
**A.** 90.7%

**Q.** With `Cn1nccc1NS(=O)(=O)c1ccc(C(C)(C)C)cc1` as the compound, how does the fold increase read?
**A.** 1.32

**Q.** And the viability?
**A.** 101%

**Q.** Which fold increase does the source give for `O=C(NCCc1cccs1)C1CC(c2cccc([N+](=O)[O-])c2)=NO1` (stereo not given) here?
**A.** 1.35

**Q.** And the viability?
**A.** 96%

**Q.** Which fold increase does the source give for `CC(=O)c1cccc(NC(=O)/C=C/c2ccc([N+](=O)[O-])s2)c1` here?
**A.** 1.47

**Q.** And the viability?
**A.** 51.1%

**Q.** With `CCN(CC)c1ccc(/C=C(\C#N)c2ccccn2)cc1` as the compound, how does the fold increase read?
**A.** 1.48

**Q.** Which fold increase does the source give for `O=C(O)C1CN(c2ncccc2[N+](=O)[O-])C1` here?
**A.** 1.34

**Q.** And the viability?
**A.** 93%

**Q.** For `COc1cc(/C=C(\CC(=O)O)c2nc3ccccc3s2)cc(OC)c1O`, which fold increase is on record?
**A.** 1.53

**Q.** What about the viability of the same compound?
**A.** 95.1%

**Q.** Which fold increase does the source give for `Cn1c2ccccc2c(=O)c2c(=O)n(Cc3ccco3)c(COc3ccccc3)nc21` here?
**A.** 2.03

**Q.** For `CCOC(=O)c1c(-c2ccc(C)cc2)csc1NC(=O)/C(C#N)=C/c1ccc(O)c(OC)c1`, which fold increase is on record?
**A.** 8.73

**Q.** And the viability?
**A.** 94%

**Q.** Which fold increase does the source give for `CC(=O)NC1=NC(=O)/C(=C/c2cc(C)n(-c3cccc(C(=O)O)c3)c2C)S1` here?
**A.** 1.55

**Q.** And the viability?
**A.** 97.9%

**Q.** With `CC(=O)c1ccc(-c2ccc(/C=C(/Sc3n[nH]c(C)n3)C(=O)O)o2)cc1` as the compound, how does the fold increase read?
**A.** 1.59

**Q.** And the viability?
**A.** 99.9%

**Q.** Which fold increase does the source give for `CSc1ccccc1NC(=O)CN(C)CC(=O)Nc1cc(C)ccc1C` here?
**A.** 1.34

**Q.** And the viability?
**A.** 98%

**Q.** What does the source list for `CCOC(=O)c1[nH]c(C)c(C(=O)Nc2ccc(C)c(C)c2)c1C`?
**A.** fold increase: 1.4; viability: 85.5%

**Q.** For `O=C(CSc1nc2c(c(C(F)(F)F)n1)CCc1ccccc1-2)NCc1ccccc1`, which fold increase is on record?
**A.** 1.14

**Q.** With `CC1(C)Cc2nc(Cl)c(C(=O)O)cc2CO1` as the compound, how does the fold increase read?
**A.** 1.53

**Q.** And the viability?
**A.** 104%

**Q.** With `CCNC(=O)c1oc2c(c1C)C(=O)CC(C)(C)C2` as the compound, how does the fold increase read?
**A.** 1.36

**Q.** What about the viability of the same compound?
**A.** 85.2%

**Q.** With `Cc1ccc(C(=O)OCCn2cc(C#N)c(=O)[nH]c2=O)cc1` as the compound, how does the fold increase read?
**A.** 1.52

**Q.** What about the viability of the same compound?
**A.** 104%

**Q.** Which fold increase does the source give for `CCOc1ccc(C2CC(c3ccc(F)cc3)Nc3nc(N)nn32)cc1` (stereo not given) here?
**A.** 1.35

**Q.** What about the viability of the same compound?
**A.** 93.8%

**Q.** With `NC(=S)N/N=C/c1ccccc1` as the compound, how does the fold increase read?
**A.** 1.36

**Q.** What about the viability of the same compound?
**A.** 98.4%

**Q.** With `COc1ccc2[nH]c3c(=O)n(Cc4ccco4)cnc3c2c1` as the compound, how does the fold increase read?
**A.** 1.11

**Q.** For `O=c1oc2c3c4c(cc2c(C(F)(F)F)c1CCN1CCOCC1)CCCN4CCC3`, which fold increase is on record?
**A.** 3.06

**Q.** What about the viability of the same compound?
**A.** 90.3%

**Q.** With `CC(=O)c1ccc(-n2c(-c3cc(-c4ccco4)[nH]n3)n[nH]c2=S)cc1` as the compound, how does the fold increase read?
**A.** 1.32

**Q.** Which results are given for `CCN1/C(=C/C=C/c2oc3ccc4ccccc4c3[n+]2CC)Oc2ccc3ccccc3c21`?
**A.** fold increase: 9.44; viability: 44.9%

**Q.** For `N/N=C(\Cc1cscn1)c1ccc(O)cc1O`, which fold increase is on record?
**A.** 1.92

**Q.** Which fold increase does the source give for `CCOc1ccc(C(=O)C2CCN(C(=O)c3ccccc3C(=O)O)CC2)cc1` here?
**A.** 1.54

**Q.** And the viability?
**A.** 95.5%

**Q.** For `CC/C(=N\NC(N)=O)c1ccc(OC(F)F)cc1`, which fold increase is on record?
**A.** 1.34

**Q.** What about the viability of the same compound?
**A.** 93.5%

**Q.** With `CN(CC(=O)Nc1ccccc1Sc1ccccc1)C1CCCCC1` as the compound, how does the fold increase read?
**A.** 1.35

**Q.** With `Cc1ccccc1N=Cc1cc2c(cc1O)OC(N)=C(C#N)C2c1ccccc1` (stereo not given) as the compound, how does the fold increase read?
**A.** 1.32

**Q.** Which fold increase does the source give for `CC(C)(C)c1cccc(Oc2nn[nH]n2)c1` here?
**A.** 1.46

**Q.** And the viability?
**A.** 97.5%

**Q.** Which results are given for `COCCOC(=O)C1=C(C)NC(=O)NC1c1c(Cl)nc2ccccn2c1=O` (stereo not given)?
**A.** fold increase: 1.96; viability: 92.2%

**Q.** With `CCN(CC)S(=O)(=O)c1ccc(C(=O)NCc2n[nH]c(=S)n2Cc2ccccc2)cc1` as the compound, how does the fold increase read?
**A.** 1.38

**Q.** And the viability?
**A.** 113%

**Q.** Which fold increase does the source give for `COc1ccc(Nc2nc(Nc3ccc(OC)cc3)nc(SC3=NCCS3)n2)cc1` here?
**A.** 1.52

**Q.** Which fold increase does the source give for `CCN(CC)c1ccc(/C=N/NC(=O)c2cccc(S(=O)(=O)N3CCOCC3)c2)c(O)c1` here?
**A.** 1.32

**Q.** For `Nc1c(S(=O)(=O)c2ccccc2)c2nc3ccccc3nc2n1/N=C/c1ccco1`, which fold increase is on record?
**A.** 1.53

**Q.** What about the viability of the same compound?
**A.** 80.5%

**Q.** Which fold increase does the source give for `COc1ccc(C2NC(=S)NC(C)=C2C(=O)c2ccccc2)cc1OC` (stereo not given) here?
**A.** 1.4

**Q.** What about the viability of the same compound?
**A.** 97.8%

**Q.** Which results are given for `Cc1ccc(C2C3CSCC=C3C(C#N)=C(N)C2(C#N)C#N)cc1` (stereo not given)?
**A.** fold increase: 1.41; viability: 86.7%

**Q.** Which fold increase does the source give for `CCc1cc(C(=O)OC)c(N2C(=O)C3C4C=CC(C4)C3C2=O)s1` (stereo not given) here?
**A.** 1.33

**Q.** And the viability?
**A.** 99.8%

**Q.** Which fold increase does the source give for `Cc1cccc(N=Nc2c(C)c(C#N)c(O)[nH]c2=O)c1` here?
**A.** 1.86

**Q.** What about the viability of the same compound?
**A.** 96.5%

**Q.** For `CC(=O)c1cc2c(C)c(C(=O)c3ccccc3)oc2cc1O`, which fold increase is on record?
**A.** 3.53

**Q.** What about the viability of the same compound?
**A.** 95.8%

**Q.** For `CCc1ccc[n+](-c2[nH]c(=O)sc2/C=N/NC([S-])=Nc2ccccc2)c1`, which fold increase is on record?
**A.** 2.46

**Q.** And the viability?
**A.** 97.5%
